# Where “and” joins values, the source holds several entries; their conditions need not be identical. Equal entries are not always repeated. The whole screen tested about 94,000 compounds, of which about 4,000 (4.3%) were called active. Inconclusive means that the source gave no clear call. Such entries were picked first, then a sample of the others. Calls come from the whole dose curve; as a rule, active = well fitted inhibition curve with a large enough effect; inconclusive = small, poorly fitted or top-dose-only effect; inactive = no such curve, though single readings can be large or run the other way. A potency beside an inconclusive call is a rough fit, not a confirmed value.
# Assay: Cytotoxic Profiling in NIH 3T3 Cell Line of Diverse Libraries Using Quantitative High-Throughput Screening; note: nearly all actives have a fitted effect of over 55% in size
# Conditions: NIH 3T3 viability, CellTiter-Glo ATP luminescence, 48-72 h; series mostly up to 96.7 µM
# Outline: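 Mouse fibroblast NIH 3T3 cells, 400 per well, received compound via pintool and were incubated for 48 or 72 hr prior to CellTiter-Glo ATP luminescence measurement.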
# Potency is the fitted concentration of half-maximal effect; tags give direction and shape of the fitted curve.
row,Compound,Potency
1,C[S+](=O)([O-])N1CC2(CCCCN2Cc2ccc(Cl)cc2)Cc2ccccc21 (centres undefined),"inconclusive: 44.7 µM [inhibitor, partial curve, poor fit]"
2,CC(C)c1ccc(CN2CC(CNC(=O)c3cnn(C)c3)C3(C2)CN(c2ccccc2)C3)cc1 (centres undefined),"inconclusive: 70.8 µM [inhibitor, single point]"
3,CCC1=C(C(=O)OC)C(c2cccc(C)c2)N2C(CC(=O)Nc3ccc(OC)cc3)=CSC2=N1 (centres undefined),"inconclusive: 39.8 µM [inhibitor, partial curve, poor fit]"
4,COc1ccc(-c2noc(CC3CCN(C(=O)c4ccccc4C)CC3)n2)cc1,"inconclusive: 28.2 µM [inhibitor, partial curve, poor fit]"
5,COc1ccc(C(=O)N2CCC(F)(C(=O)NCC3CC3)CC2)cc1F,inactive
6,Cn1ncc2c(C(=O)NCc3ccc(Cl)cc3)cc(-c3ccccc3F)nc21,"inconclusive: 11.2 µM [inhibitor, partial curve, poor fit]"
7,COCCC1(NS(=O)(=O)N(C)C)CCN(S(C)(=O)=O)CC1,inactive
8,Cc1cc(C)cc(-c2ccc(CN3CCCC3C(=O)N3CCC(Cc4ccccc4)CC3)cc2)c1 (centres undefined),active: 11.2 µM
9,O=C(NCC1CC1)c1ccc2nnc(-c3cc(C(F)(F)F)cc(C(F)(F)F)c3)n2c1,"inconclusive: 28.2 µM [inhibitor, partial curve, poor fit]"
10,Cc1noc(C)c1-c1cc2c(cc(-c3ccccc3)n2C)c(N2CCOCC2)n1,active: 31.6 µM
11,CCNC(=O)Nc1ccc2c(c1)CN(Cc1ccccc1OC)C(=O)C(C)O2 (centres undefined),"inconclusive: 50.1 µM [inhibitor, partial curve, poor fit]"
12,COc1ccc(-c2cc(N3CCCC(NC(=O)c4ccc(C)nc4)C3)n[nH]2)cc1 (centres undefined),"inconclusive: 20 µM [inhibitor, full curve]"
13,Cc1ccc(CN2CC[C@@H]3[C@H]2C(=O)NC[C@H](CCC(=O)NCc2ccc(F)cc2)N3C)cc1,"inconclusive: 79.4 µM [inhibitor, partial curve]"
14,COc1cccc(-c2cc(-c3ccccc3)nc3c(C)noc23)c1,"inconclusive: 56.2 µM [inhibitor, partial curve, poor fit]"
15,CNC(=O)C1(C)CN(Cc2ccccc2)Cc2ccc(N3CCOCC3)nc21 (centres undefined),"inconclusive: 89.1 µM [inhibitor, partial curve]"
16,O=C(NCC1CC1)c1nc2cccnc2n(C2CCCC2)c1=O,"inconclusive: 100 µM [inhibitor, single point]"
17,O=c1cc(C2=CCOCC2)oc2c(-c3cccc4[nH]ccc34)nccc12,"inconclusive: 10 µM [inhibitor, full curve, poor fit]"
18,CCc1noc(CC2CCOC3(CCN(S(=O)(=O)c4cccc(Cl)c4)CC3)C2)n1 (centres undefined),"inconclusive: 28.2 µM [inhibitor, partial curve, poor fit]"
19,COCCN1C(=O)[C@H]2CN(Cc3cc(OC)c(OC)c(OC)c3)C[C@H]2C1=O,inactive
20,S=C(Nc1ccccc1)N[C@H]1CO[C@H]2[C@@H]1OC[C@@H]2Nc1nccc(-c2ccco2)n1,"inconclusive: 50.1 µM [inhibitor, partial curve, poor fit]"

row,Compound,Potency
1,N#Cc1cccc(NC(=O)N2CCC[C@@H](O)[C@H](NC(=O)c3ccc(OCc4ccc(F)cc4)cc3)C2)c1,"inconclusive: 15.8 µM [inhibitor, full curve, poor fit]"
2,C1CCC(c2nc(CCOCC3CCCC3)no2)NC1 (centres undefined),inactive
3,O=C(NCc1nnc2ccc(-c3ccc(Cl)cc3)nn12)c1ccc(F)c(F)c1,"inconclusive: 44.7 µM [inhibitor, partial curve, poor fit]"
4,COc1ccccc1C(=O)N1CCCCCC1CN1CCc2ccccc2C1 (centres undefined),"inconclusive: 50.1 µM [inhibitor, partial curve, poor fit]"
5,COc1cccc(-c2ccc(C(=O)NCCNC(=O)C(C)(C)C)cc2)c1,"inconclusive: 39.8 µM [inhibitor, partial curve]"
6,Cc1ccc(-c2cccc(CN3CCCC(c4nc5ccc(C)cc5c(=O)[nH]4)C3)c2)c(C)c1 (centres undefined),"inconclusive: 44.7 µM [inhibitor, partial curve, poor fit] and inconclusive: 50.1 µM [inhibitor, partial curve, poor fit]"
7,Cn1ccc(Nc2nccc3c(=O)cc(-c4cn[nH]c4)oc23)n1,active: 79.4 µM
8,COc1cccc(CN2CCCN(Cc3ccncc3)C(c3ccccc3)CC(=O)NCC2)c1OC (centres undefined),"inconclusive: 44.7 µM [inhibitor, partial curve, poor fit]"
9,CC(C)c1nc2c(c(-c3ccc(Cl)cc3)n1)CN(C(=O)c1ccc(Cl)nc1)CC2,"inconclusive: 50.1 µM [inhibitor, partial curve, poor fit]"
10,COc1ccc(C(=O)N2CC3(COCC(=O)N(Cc4ccccc4)C3)C2)cc1,"inconclusive: 56.2 µM [inhibitor, partial curve, poor fit]"
11,COc1cccc(CN2Cc3nc(-c4cncnc4)ccc3OCC2=O)c1,"inconclusive: 89.1 µM [inhibitor, partial curve, poor fit]"
12,Fc1ccc(-c2cnc([C@@H]3COCCN3Cc3ccncc3)[nH]2)cc1,"inconclusive: 112 µM [inhibitor, single point]"
13,CC(C)(C)OC(=O)N1CC(Nc2ccc(O)cc2)C1,"inconclusive: 22.4 µM [inhibitor, full curve, poor fit] and active: 28.2 µM"
14,O=C(c1ccoc1)N1CCC(Oc2ccccc2)C1 (centres undefined),"inconclusive: 17.8 µM [inhibitor, full curve, poor fit]"
15,O=[S+]([O-])(CCC(F)(F)F)NC1CCN(Cc2cccc(-c3cccs3)c2)CC1,active: 22.4 µM
16,O=S(=O)(Cc1ccccc1)N1CCC(c2nc(CCOc3ccc(F)cc3)no2)C1 (centres undefined),"inconclusive: 50.1 µM [inhibitor, partial curve, poor fit]"
17,CC(C)(C)CN1CCCC12Cc1ccccc1CNC2=O (centres undefined),"inconclusive: 50.1 µM [inhibitor, partial curve]"
18,Cc1ccccc1CN1CC[C@H](c2nc3ccc(F)cc3[nH]2)C1,"inconclusive: 39.8 µM [inhibitor, partial curve, poor fit]"
19,CCOC(=O)CN1C(=O)CCN(C(=O)OCc2ccccc2)CC(OC)c2ccccc21 (centres undefined),"inconclusive: 11.2 µM [inhibitor, full curve]"
20,O=C(NCc1ccc2c(c1)OCO2)C1Cn2cccc2C(=O)N1Cc1cccnc1 (centres undefined),inactive

row,Compound,Potency
1,CC1=NS(=O)(=O)N(C)C=C1C(=O)OCc1nc(-c2cccc(Br)c2)no1,"inconclusive: 50.1 µM [inhibitor, partial curve, poor fit]"
2,CC(CCc1ccccc1)NC(=O)Cn1cccc1-c1nc(-c2ccc(F)cc2)no1 (centres undefined),inactive
3,COc1ccc(CCC(=O)N2CCC3(CC2)CC(OCC2CC2)CCO3)cc1 (centres undefined),inactive
4,COc1cccc(CNC(=O)c2cn3cc(-c4cccc(C#N)c4)sc3n2)c1,inactive
5,Cc1cccc2c1O[C@H]1[C@H](CO)CN(C(=O)CC(C)C)[C@@H]21,"inconclusive: 79.4 µM [inhibitor, partial curve, poor fit]"
6,CC(=O)Nc1ccccc1-c1nccc2c(=O)cc(N(C)C3CCOCC3)oc12,"inconclusive: 112 µM [inhibitor, single point]"
7,COc1ccc(CNC(=O)c2ccc3nnc(-c4ccc(Cl)cc4)n3c2)cc1,"inconclusive: 50.1 µM [inhibitor, partial curve, poor fit]"
8,O=C(c1cc(-c2ccc(F)cc2)n[nH]1)N1CCC(OCC2CC2)C1 (centres undefined),inactive
9,COc1ccc(N2C(=O)C3(CCCCC3)C2C(=O)NCCN2CCc3ccccc3C2)cc1 (centres undefined),"inconclusive: 50.1 µM [inhibitor, partial curve, poor fit]"
10,O=C(NCc1ccccc1Cl)c1nc2sccn2c1-c1ccncc1,"inconclusive: 35.5 µM [inhibitor, partial curve, poor fit]"
11,COC(=O)N1CCn2ncc(C(=O)NCc3ccc(Cl)nc3)c2C1,inactive
12,CN1CCN(c2ccc3ncn(-c4cccnc4)c(=O)c3n2)CC1,"inconclusive: 50.1 µM [inhibitor, partial curve, poor fit]"
13,O=C(c1ccc(F)c(Cl)c1)N1CCN(c2cc(-c3cccs3)[nH]n2)CC1,"inconclusive: 44.7 µM [inhibitor, partial curve, poor fit]"
14,O=C(c1ccc(F)c(Cl)c1)N1CCN(c2cc(C(F)(F)F)ncn2)CC1,"inconclusive: 39.8 µM [inhibitor, partial curve]"
15,COCCNC(=O)C1CCCN1Cc1ccc(-c2cc(C)cc(C)c2)cc1 (centres undefined),"inconclusive: 50.1 µM [inhibitor, partial curve, poor fit]"
16,C=CCN(C)C(=O)[C@@H](C)C1CC[C@@]2(C)Cc3sc(NCCCC)nc3[C@@H](C)[C@@H]2[C@H]1O (some centres undefined),active: 35.5 µM
17,COc1ccc(C(=O)NC2CCN(c3cc(-c4ccc(OC)cc4)[nH]n3)CC2)cc1,"inconclusive: 31.6 µM [inhibitor, full curve, poor fit]"
18,Cc1ccccc1-n1nc(C)c(CCC(=O)N2CCSCC2)c1Oc1ccccc1F,"inconclusive: 50.1 µM [inhibitor, partial curve, poor fit]"
19,CNC(=O)c1cc(C)nc2onc(C3CCCN3[S+](=O)([O-])c3ccccc3)c12 (centres undefined),inactive

# — PubChem BioAssay AID1345082 (National Center for Advancing Translational Sciences (NCATS), 2018)
